Reference: the RNAGym collection of RNA variant scans (doi:10.1101/gad.245936.114)
Variants at the background level are over-represented here.

B1: tRNA (parent)
chain: CUCUCGGUAGCCAAGUUGGUUUAAGGCGCAAGACUUUAAUUUAUCACUACGAAAUCUUGAGAUCGGGCGUUCGACUCGCCCCCGGGAGAUUUUUUCCUCGAGCAA

Variants of: B1
Assay: nonsense suppression (GFP-seq) (ratio to wild type); higher = more function; SUP4oc tRNA, yeast GFP reporter sort-seq
Summary of the method: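 Each variant's nonsense suppression (GFPSEQ) is a cell-share-weighted bin median GFP/RFP relative to the unmutated parent tRNA. Yeast with genome-integrated tRNA variants from a ~3% random-mutation library, a galactose-driven GFP ochre reporter and RFP were grown in raffinose/galactose medium with 80 mg/L adenine, then sorted into GFP/RFP bins for Illumina sequencing. Variants needed ≥100 reads and ≥30 cells.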

Variant | nonsense suppression
CUCUCGGUAGCCAAGUUGGUUUAAGGCGCAAGACUUUAAUUUAUCACUACGAAAUCAUGAGAUCGGUCGUUCGACUCCCCCCCGGGAGAUUUUUUCCUCGAGCAA [U57A G67U G78C] | ≤ 0.026
CUCUCGGUAGCCAAGUUGGUUUAAGGCGCAAGACUUUAAUUUAUCACUACGAAAUCAUGAGAUCGGUCGUUCGACCCGCCCCCGGGAGAUUUUUUCCUCGAGCAA [U57A G67U U76C] | ≤ 0.026
CUCUCGGUAGCCAAGUUGGUUUAAGGCGCAAGACUUUAAUUUAUCACUACGAAAUCAUGAGAUCGGGCAUUCGACUCGCACCCGGGAGAUUUUUUCCUCGAGCAA [U57A G69A C80A] | ≤ 0.026
CUCUCGGUAGCCAAGUUGGUUUAAGGCGCAAGACUUUAAUUUAUCACUACGAAAUCAUGAGAUCGGGCCUUCGACUCGCCCCCGGGAGAUUUUUUCCUCGAGCAA [U57A G69C] | ≤ 0.026
CUCUCGGUAGCCAAGUUGGUUUAAGGCGCAAGACUUUAAUUUAUCACUACGAAAUCAUGAGAUCGGGCUUUCGACUAGCCCCCGGGAGAUUUUUUCCUCGAGCAA [U57A G69U C77A] | ≤ 0.026
CUCUCGGUAGCCAAGUUGGUUUAAGGCGCAAGACUUUAAUUUAUCACUACGAAAUCAUGAGAUCGGGCUUUCGACUCGCCCCGGGGAGAUUUUUUCCUCGAGCAA [U57A G69U C83G] | ≤ 0.026
CUCUCGGUAGCCAAGUUGGUUUAAGGCGCAAGACUUUAAUUUAUCACUACGAAAUCAUGAGAUCGGGCUUUCGACUCGCCCCUGGGAGAUUUUUUCCUCGAGCAA [U57A G69U C83U] | ≤ 0.026
CUCUCGGUAGCCAAGUUGGUUUAAGGCGCAAGACUUUAAUUUAUCACUACGAAAUCAUGAGAUCGGGCGUUCCACUCGCCCCCGGGAGAUUUUUUCCUCGAGCAA [U57A G73C] | ≤ 0.026
CUCUCGGUAGCCAAGUUGGUUUAAGGCGCAAGACUUUAAUUUAUCACUACGAAAUCAUGAGAUCGGGCGUUCGACUCGCCCCCCGGAGAUUUUUUCCUCGAGCAA [U57A G84C] | ≤ 0.026
CUCUCGGUAGCCAAGUUGGUUUAAGGCGCAAGACUUUAAUUUAUCACUACGAAAUCAUGAGAUCGGGCGUUCGACUCGCCCCCUGGAGAUUUUUUCCUCGAGCAA [U57A G84U] | 0.0408
CUCUCGGUAGCCAAGUUGGUUUAAGGCGCAAGACUUUAAUUUAUCACUACGAAAUCAUGAGAUCGGGCGUUCGACUCGCCCCCGAGAGAUUUUUUCCUCGAGCAA [U57A G85A] | 0.165
CUCUCGGUAGCCAAGUUGGUUUAAGGCGCAAGACUUUAAUUUAUCACUACGAAAUCAUGAGAUCGGGCGUUCGACUCGCCCCCGGUAGAUUUUUUCCUCGAGCAA [U57A G86U] | ≤ 0.026
CUCUCGGUAGCCAAGUUGGUUUAAGGCGCAAGACUUUAAUUUAUCACUACGAAAUCACGAGAUCGGGCGUUCGACUCGCCCCCGGGAGAUUUUUUCCUCGAGCAA [U57A U58C] | ≤ 0.026
CUCUCGGUAGCCAAGUUGGUUUAAGGCGCAAGACUUUAAUUUAUCACUACGAAAUCACGAGAUCGGGCGUUCGACUCGCCGCCGGGAGAUUUUUUCCUCGAGCAA [U57A U58C C81G] | ≤ 0.026
CUCUCGGUAGCCAAGUUGGUUUAAGGCGCAAGACUUUAAUUUAUCACUACGAAAUCAUGAGACUGGGCGUUCGACUCGCCCCGGGGAGAUUUUUUCCUCGAGCAA [U57A U63C C64U C83G] | ≤ 0.026
CUCUCGGUAGCCAAGUUGGUUUAAGGCGCAAGACUUUAAUUUAUCACUACGAAAUCAUGAGAGCGGGCGUUCGACUCGCCCCCGGGAGAUUUUUUCCUCGAGCAA [U57A U63G] | ≤ 0.026
CUCUCGGUAGCCAAGUUGGUUUAAGGCGCAAGACUUUAAUUUAUCACUACGAAAUCAUGAGAUCGGGCGAUCGACUCGCCCCCGGAAGAUUUUUUCCUCGAGCAA [U57A U70A G86A] | ≤ 0.026
CUCUCGGUAGCCAAGUUGGUUUAAGGCGCAAGACUUUAAUUUAUCACUACGAAAUCAUGAGAUCGGGCGUACGACUCGCCCCCGGGAGAUUUUUUCCUCGAGCAA [U57A U71A] | ≤ 0.026
CUCUCGGUAGCCAAGUUGGUUUAAGGCGCAAGACUUUAAUUUAUCACUACGAAAUCAUGAGAUCGGGCGUGCGACUCGCCCCCGGGAGAUUUUUUCCUCGAGCAA [U57A U71G] | ≤ 0.026
CUCUCGGUAGCCAAGUUGGUUUAAGGCGCAAGACUUUAAUUUAUCACUACGAAAUCAUGAGAUCGGGCGUUCGACACGCCCCCGGGAGAUUUUUUCCUCGAGCAA [U57A U76A] | ≤ 0.026
CUCUCGGUAGCCAAGUUGGUUUAAGGCGCAAGACUUUAAUUUAUCACUACGAAAUCAUGAGAUCGGGCGUUCGACCCUCCCCCGGGAGAUUUUUUCCUCGAGCAA [U57A U76C G78U] | ≤ 0.026
CUCUCGGUAGCCAAGUUGGUUUAAGGCGCAAGACUUUAAUUUAUCACUACGAAAUCCUGGGAUCGGGCGUUCGACUCGCGCCCGGGAAAUUUUUUCCUCGAGCAA [U57C A60G C80G G88A] | ≤ 0.026
CUCUCGGUAGCCAAGUUGGUUUAAGGCGCAAGACUUUAAUUUAUCACUACGAAAUCCUGAGGUCAGGCGUUCGACUCGCCCCCGGGAGAUUUUUUCCUCGAGCAA [U57C A62G G65A] | ≤ 0.026
CUCUCGGUAGCCAAGUUGGUUUAAGGCGCAAGACUUUAAUUUAUCACUACGAAAUCCUGAGUUCGGGCGUUCGACUCGCCCCCGGGAGAUUUUUUCCUCGAGCAA [U57C A62U] | ≤ 0.026
CUCUCGGUAGCCAAGUUGGUUUAAGGCGCAAGACUUUAAUUUAUCACUACGAAAUCCUGAGAUCGGGCGUUCGCCUCGCCCCCGGGAGAUUUUUUCCUCGAGCAA [U57C A74C] | ≤ 0.026
CUCUCGGUAGCCAAGUUGGUUUAAGGCGCAAGACUUUAAUUUAUCACUACGAAAUCCUGAGAUCGGGGGUUCGACUCGCCCCCGGGAGAUUUUUUCCUCGAGCAA [U57C C68G] | ≤ 0.026
CUCUCGGUAGCCAAGUUGGUUUAAGGCGCAAGACUUUAAUUUAUCACUACGAAAUCCUGAGAUCGGGCGUUCGACUAGCCCCCGGGAGGUUUUUUCCUCGAGCAA [U57C C77A A89G] | ≤ 0.026
